Each structure is given as a SMILES string. Over roughly 3,600 compounds, “viability index relative to DMSO control” has its median near 0.81; the lowest 2% begin near 0.13. The list shows a part of the results.
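Note: 384-well serum-free SaLSSA: MitoTracker Red CMXRos staining with saponin lysis, high-content imaging, treated-well particle count divided by plate-mean count of DMSO wells.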

The assay deals with Plasmodium falciparum NF54 stage V gametocytes. Nature of the assay: viability index relative to DMSO control (fraction); higher = less gametocyte killing. Conditions: 1.25 µM, incubation time: 72 h.
`CC(C)C[C@@H](NC(=O)[C@H](C)NC(=O)CNC(=O)[C@@H](NC=O)C(C)C)C(=O)N[C@@H](C)C(=O)N[C@@H](C(=O)N[C@H](C(=O)N[C@@H](C(=O)N[C@@H](Cc1c[nH]c2ccccc12)C(=O)N[C@H](CC(C)C)C(=O)N[C@@H](Cc1c[nH]c2ccccc12)C(=O)N[C@H](CC(C)C)C(=O)N[C@@H](Cc1c[nH]c2ccccc12)C(=O)N[C@H](CC(C)C)C(=O)N[C@@H](Cc1c[nH]c2ccccc12)C(=O)NCCO)C(C)C)C(C)C)C(C)C` yielded a viability index of 0.313.

In turn, `CCOC(=O)c1sc2nc(N)c(C#N)c(-c3cccs3)c2c1N` returned a viability index of 0.739.

In turn, `COc1ccc(C2=Nc3cc(C(=O)NCCN4CCOCC4)ccc3CN2C(C)C)cc1` yielded a viability index of 0.5.

The compound `Cc1cccc(Nc2nc3nonc3[nH]c2=NN=Cc2cccs2)c1C` yielded a viability index of 0.73.

`COc1ccc(N2CCN(c3ncnc4sc(C(=O)NCc5cccnc5)c(C)c34)CC2)cc1` had a viability index of 0.951.

`CCOC(=O)N1CCN(C(=O)c2cnc3ccc(C)cn3c2=O)CC1` showed a viability index of 1.46.

`COc1ccc2nc(C)cc(NN=Cc3cccs3)c2c1` gave a viability index of 0.638.

The compound `CC(C)c1ccc(C=NNC(=O)c2ccccc2O)cc1` returned a viability index of 0.776.

`C(#Cc1ccccc1)C[N+]1(CC#Cc2ccc(C#CC[N+]3(CC#Cc4ccccc4)CCCCC3)cc2)CCCCC1`: the viability index turned out to be 0.783.

Regarding `c1ccc(OCCOc2ccc(Nc3c4ccccc4nc4ccccc34)cc2)cc1`, the viability index was found to be 0.525.

Consider `COc1ccc(Nc2ncnc3[nH]c(-c4cccc([N+](=O)[O-])c4)cc23)cc1`, for which the viability index amounted to 0.504.

On to `CN(C)c1ccc(C=C2SC(=Nc3ccccc3Cl)NC2=O)cc1`, for which the viability index was found to be 0.717.

In turn, `CC(Oc1ccc(Cl)cc1Cl)c1nc(-c2ccc(NC(=O)c3cccs3)cc2)no1` (stereo not given) returned a viability index of 1.11.

Compound `CC(C)CSc1nc2sc3c(c2c(=O)n1-c1ccccc1)CCN(Cc1ccccc1)C3` showed a viability index of 0.884.

`Cc1ccc(Sc2cc(C(=O)NCc3ccco3)c3ccccc3n2)cc1`: the viability index stood at 1.1.

Take `CCN1C(=Cc2cccc[n+]2C)C=Cc2ccc(C)cc21`: the viability index stood at 1.04.

`CCC(C)OC(=O)C1=C(C)NC2=C(C(=O)CC(c3ccc(Cl)cc3)C2)C1c1ccc(Cl)cc1` (stereo not given): the viability index amounted to 0.871.

As to `OC(CN1CCN(CC=Cc2ccccc2)CC1)Cn1c2ccc(Cl)cc2c2cc(Cl)ccc21` (stereo not given), the viability index amounted to 0.424.

Regarding `COc1cccc(C=NNC(=O)c2ccccc2O)c1O`, the viability index came to 1.01.

On to `N=c1n(Cc2ccccc2)c2ccccc2n1CC(O)c1ccc(Cl)c(Cl)c1` (stereo not given), for which the viability index worked out at 0.222.

Values taken from the supplement of paper PMC4723716.
